# The supplement of paper PMC4604168 (melanoma cell lines)
# Some of the results follow. Most values come without repeats; read them as rough.
# Test system: WM451Lu
# Assay: cell count relative to DMSO control; melanoma cells; higher = more viable cells
# Conditions: library dose: standard library concentration; 72 h
# 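Also: cells treated in 1,536-well plates, then fixed and DAPI-stained, with nuclei counted from automated high-throughput microscope images.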
row,SMILES,cell count
1,"Cn1cnc2c(F)c(Nc3ccc(Br)cc3Cl)c(C(=O)NOCCO)cc21 [selumetinib] + CC(C)(C)c1cnc(CSc2cnc(NC(=O)C3CCNCC3)s2)o1 [SNS-032] (first compound 0.075 µM, partner dose 0.05 µM)",44.6%
2,"C[C@]1(O)C[C@@H](c2nc(-c3ccc4ccc(-c5ccccc5)nc4c3)c3c(N)nccn32)C1 + CC1(C)NC(=O)N(c2ccc([N+](=O)[O-])c(C(F)(F)F)c2)C1=O [nilutamide] (first compound 2 µM, partner dose 5 µM)",104%
3,"Cn1cnc2c(F)c(Nc3ccc(Br)cc3Cl)c(C(=O)NOCCO)cc21 [selumetinib] + CO[C@@H]1[C@H](N(C)C(=O)c2ccccc2)C[C@H]2O[C@]1(C)n1c3ccccc3c3c4c(c5c6ccccc6n2c5c31)C(=O)NC4 [Midostaurin] (first compound 0.075 µM, partner dose 0.4 µM)",84.3%
4,"CCN(CC)CCNC(=O)c1c(C)[nH]c(/C=C2\C(=O)Nc3ccc(F)cc32)c1C [sunitinib] + CC1(C)NC(=O)N(c2ccc([N+](=O)[O-])c(C(F)(F)F)c2)C1=O [nilutamide] (first compound 2 µM, partner dose 5 µM)",58.6%
5,"COc1cc([C@@H]2c3cc4c(cc3[C@@H](O[C@@H]3O[C@@H]5CO[C@@H](C)O[C@H]5[C@H](O)[C@H]3O)[C@H]3COC(=O)[C@H]23)OCO4)cc(OC)c1O [etoposide] + CC1(C)NC(=O)N(c2ccc([N+](=O)[O-])c(C(F)(F)F)c2)C1=O [nilutamide] (first compound 0.1 µM, partner dose 5 µM)",79.3%
6,"CCN(CC)CCNC(=O)c1c(C)[nH]c(/C=C2\C(=O)Nc3ccc(F)cc32)c1C [sunitinib] + O=C(O)c1ccc(-c2c[nH]c3ncc(-c4ccccc4)cc23)cc1C1CCCC1 [GSK650394] (first compound 2 µM, partner dose 0.8 µM)",50.5%
7,"CCN(CC)CCNC(=O)c1c(C)[nH]c(/C=C2\C(=O)Nc3ccc(F)cc32)c1C [sunitinib] + Cc1ccc(NC(=O)c2cccc(N(C)C)c2)cc1NC(=O)c1ccc(O)cc1 [ZM336372] (first compound 2 µM, partner dose 10 µM)",63.8%
8,"Cn1cnc2c(F)c(Nc3ccc(Br)cc3Cl)c(C(=O)NOCCO)cc21 [selumetinib] + COc1cc(N2CCC(N3CCN(C)CC3)CC2)ccc1Nc1ncc(Cl)c(Nc2ccccc2S(=O)(=O)C(C)C)n1 [NVP-TAE684] (first compound 0.075 µM, partner dose 0.4 µM)",60.6%
9,"COc1cc([C@@H]2c3cc4c(cc3[C@@H](O[C@@H]3O[C@@H]5CO[C@@H](C)O[C@H]5[C@H](O)[C@H]3O)[C@H]3COC(=O)[C@H]23)OCO4)cc(OC)c1O [etoposide] + NCC(=O)Nc1ccc(-n2nc(C(F)(F)F)cc2-c2ccc3c(ccc4ccccc43)c2)cc1 [OSU03012] (first compound 0.1 µM, partner dose 5 µM)",84.4%
10,"COc1cc([C@@H]2c3cc4c(cc3[C@@H](O[C@@H]3O[C@@H]5CO[C@@H](C)O[C@H]5[C@H](O)[C@H]3O)[C@H]3COC(=O)[C@H]23)OCO4)cc(OC)c1O [etoposide] + C=CCn1c(=O)c2cnc(Nc3ccc(N4CCN(C)CC4)cc3)nc2n1-c1cccc(C(C)(C)O)n1 [MK1775] (first compound 0.1 µM, partner dose 0.1 µM)",102%
11,"C[C@]1(O)C[C@@H](c2nc(-c3ccc4ccc(-c5ccccc5)nc4c3)c3c(N)nccn32)C1 + COc1cc(Nc2ncc(F)c(Nc3ccc4c(n3)NC(=O)C(C)(C)O4)n2)cc(OC)c1OC [Tamatinib] (first compound 2 µM, partner dose 2 µM)",72.8%
12,"COc1cc([C@@H]2c3cc4c(cc3[C@@H](O[C@@H]3O[C@@H]5CO[C@@H](C)O[C@H]5[C@H](O)[C@H]3O)[C@H]3COC(=O)[C@H]23)OCO4)cc(OC)c1O [etoposide] + COc1cc(Nc2ncc(F)c(Nc3ccc4c(n3)NC(=O)C(C)(C)O4)n2)cc(OC)c1OC [Tamatinib] (first compound 0.1 µM, partner dose 2 µM)",80.7%
13,"CCN(CC)CCNC(=O)c1c(C)[nH]c(/C=C2\C(=O)Nc3ccc(F)cc32)c1C [sunitinib] + CO[C@@H]1[C@H](N(C)C(=O)c2ccccc2)C[C@H]2O[C@]1(C)n1c3ccccc3c3c4c(c5c6ccccc6n2c5c31)C(=O)NC4 [Midostaurin] (first compound 2 µM, partner dose 0.4 µM)",76.6%
14,"C[C@]1(O)C[C@@H](c2nc(-c3ccc4ccc(-c5ccccc5)nc4c3)c3c(N)nccn32)C1 + CO[C@@H]1[C@H](N(C)C(=O)c2ccccc2)C[C@H]2O[C@]1(C)n1c3ccccc3c3c4c(c5c6ccccc6n2c5c31)C(=O)NC4 [Midostaurin] (first compound 2 µM, partner dose 0.4 µM)",75.7%
15,"Cn1cnc2c(F)c(Nc3ccc(Br)cc3Cl)c(C(=O)NOCCO)cc21 [selumetinib] + O=C(O)c1ccc(-c2c[nH]c3ncc(-c4ccccc4)cc23)cc1C1CCCC1 [GSK650394] (first compound 0.075 µM, partner dose 0.8 µM)",66.9%
16,"COc1cc([C@@H]2c3cc4c(cc3[C@@H](O[C@@H]3O[C@@H]5CO[C@@H](C)O[C@H]5[C@H](O)[C@H]3O)[C@H]3COC(=O)[C@H]23)OCO4)cc(OC)c1O [etoposide] + Cc1cc(N2CCOCC2)cc2[nH]c(-c3c(NC[C@@H](O)c4cccc(Cl)c4)cc[nH]c3=O)nc12 [BMS536924] (first compound 0.1 µM, partner dose 1 µM)",101%
17,"CCN(CC)CCNC(=O)c1c(C)[nH]c(/C=C2\C(=O)Nc3ccc(F)cc32)c1C [sunitinib] + O=C(CCCCCCC(=O)Nc1ccccc1)NO [vorinostat] (first compound 2 µM, partner dose 0.4 µM)",66.8%
18,"COc1cc([C@@H]2c3cc4c(cc3[C@@H](O[C@@H]3O[C@@H]5CO[C@@H](C)O[C@H]5[C@H](O)[C@H]3O)[C@H]3COC(=O)[C@H]23)OCO4)cc(OC)c1O [etoposide] + NC(=O)Nc1cc(-c2cccc(F)c2)sc1C(=O)N[C@H]1CCCNC1 [AZD7762] (first compound 0.1 µM, partner dose 0.1 µM)",73.7%
19,"COc1cc([C@@H]2c3cc4c(cc3[C@@H](O[C@@H]3O[C@@H]5CO[C@@H](C)O[C@H]5[C@H](O)[C@H]3O)[C@H]3COC(=O)[C@H]23)OCO4)cc(OC)c1O [etoposide] + OCCn1cc(-c2cnc3nnn(Cc4ccc5ncccc5c4)c3n2)cn1 [PF04217903] (first compound 0.1 µM, partner dose 5 µM)",109%
20,"COc1cc([C@@H]2c3cc4c(cc3[C@@H](O[C@@H]3O[C@@H]5CO[C@@H](C)O[C@H]5[C@H](O)[C@H]3O)[C@H]3COC(=O)[C@H]23)OCO4)cc(OC)c1O [etoposide] + O=C(O)c1ccc(-c2c[nH]c3ncc(-c4ccccc4)cc23)cc1C1CCCC1 [GSK650394] (first compound 0.1 µM, partner dose 0.8 µM)",111%
21,"CCN(CC)CCNC(=O)c1c(C)[nH]c(/C=C2\C(=O)Nc3ccc(F)cc32)c1C [sunitinib] + COc1cc(Nc2ncc(F)c(Nc3ccc4c(n3)NC(=O)C(C)(C)O4)n2)cc(OC)c1OC [Tamatinib] (first compound 2 µM, partner dose 2 µM)",72.7%
22,"Cn1cnc2c(F)c(Nc3ccc(Br)cc3Cl)c(C(=O)NOCCO)cc21 [selumetinib] + O=C(CCCCCCC(=O)Nc1ccccc1)NO [vorinostat] (first compound 0.075 µM, partner dose 0.4 µM)",66.3%
23,"CCN(CC)CCNC(=O)c1c(C)[nH]c(/C=C2\C(=O)Nc3ccc(F)cc32)c1C [sunitinib] + C=CCn1c(=O)c2cnc(Nc3ccc(N4CCN(C)CC4)cc3)nc2n1-c1cccc(C(C)(C)O)n1 [MK1775] (first compound 2 µM, partner dose 0.1 µM)",60.9%
24,"COc1cc([C@@H]2c3cc4c(cc3[C@@H](O[C@@H]3O[C@@H]5CO[C@@H](C)O[C@H]5[C@H](O)[C@H]3O)[C@H]3COC(=O)[C@H]23)OCO4)cc(OC)c1O [etoposide] + CCN(CC)CCNC(=O)c1c(C)[nH]c(/C=C2\C(=O)Nc3ccc(F)cc32)c1C [sunitinib] (first compound 0.1 µM, partner dose 2 µM)",65.7%
25,"Cn1cnc2c(F)c(Nc3ccc(Br)cc3Cl)c(C(=O)NOCCO)cc21 [selumetinib] + CN(C)S(=O)(=O)c1ccc2c(c1)/C(=C/c1cc3c([nH]1)CCCC3)C(=O)N2 [SU6656] (first compound 0.075 µM, partner dose 2 µM)",57.1%
26,"C[C@]1(O)C[C@@H](c2nc(-c3ccc4ccc(-c5ccccc5)nc4c3)c3c(N)nccn32)C1 + NC(=O)Nc1cc(-c2cccc(F)c2)sc1C(=O)N[C@H]1CCCNC1 [AZD7762] (first compound 2 µM, partner dose 0.1 µM)",83.6%
27,"C[C@]1(O)C[C@@H](c2nc(-c3ccc4ccc(-c5ccccc5)nc4c3)c3c(N)nccn32)C1 + OCCn1cc(-c2cnc3nnn(Cc4ccc5ncccc5c4)c3n2)cn1 [PF04217903] (first compound 2 µM, partner dose 5 µM)",102%
